# Data reported in PubChem BioAssay AID588342 (National Center for Advancing Translational Sciences (NCATS), 2011).
# The whole screen tested about 360,000 compounds, of which about 25,000 (6.9%) were called active. The shares of active, inactive and inconclusive entries below differ from those in the screen. Calls come from the whole dose curve; as a rule, active = well fitted inhibition curve with a large enough effect; inconclusive = small, poorly fitted or top-dose-only effect; inactive = flat fitted curve, though single readings scatter. A potency beside an inconclusive call is a rough fit, not a confirmed value.
# Target: Luciferin 4-monooxygenase (Photinus pyralis) (UniProt P08659)
# Test: qHTS profiling assay for firefly luciferase inhibitor/activator using purifed enzyme and Km concentrations of substrates (counterscreen for miR-21 project); note: nearly all actives have a fitted effect of over 55% in size
# Settings: purified FLuc, luminescence inhibition; series mostly up to 57.5 µM
# Method in brief: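 Purified P. pyralis luciferase, 10 nM final, with Km-level 10 uM D-luciferin and 10 uM ATP in 50 mM Tris acetate pH 7.5, 10 mM Mg acetate, 0.01% Tween-20, 0.05% BSA; 6-point qHTS titration about 60 µM downward; luminescence read.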
# Potency is the fitted concentration of half-maximal effect; tags give direction and shape of the fitted curve.
# UniProt P08659, sequence (P08659 whole entry, looked up): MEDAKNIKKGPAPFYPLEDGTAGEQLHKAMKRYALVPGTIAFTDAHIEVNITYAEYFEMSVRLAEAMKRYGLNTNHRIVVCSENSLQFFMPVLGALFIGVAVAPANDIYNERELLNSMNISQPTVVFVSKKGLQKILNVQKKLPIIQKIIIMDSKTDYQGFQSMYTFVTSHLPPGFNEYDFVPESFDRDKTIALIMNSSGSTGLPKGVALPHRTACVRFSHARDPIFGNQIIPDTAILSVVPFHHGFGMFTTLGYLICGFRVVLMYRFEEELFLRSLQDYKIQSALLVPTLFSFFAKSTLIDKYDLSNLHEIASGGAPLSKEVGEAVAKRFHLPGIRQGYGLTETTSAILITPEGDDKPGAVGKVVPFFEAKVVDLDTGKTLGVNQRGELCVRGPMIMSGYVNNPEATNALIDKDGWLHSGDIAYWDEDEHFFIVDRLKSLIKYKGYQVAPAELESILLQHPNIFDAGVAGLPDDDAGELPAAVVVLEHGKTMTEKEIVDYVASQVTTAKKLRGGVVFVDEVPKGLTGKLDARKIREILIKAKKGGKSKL
row,SMILES,Potency
1,COc1cccc(/C=C2\SC(=S)N(C(C)C(=O)NC3C=CS(=O)(=O)C3)C2=O)c1 (stereo not given),"inconclusive: 26.9 µM [inhibitor, single point]"
2,CCN(CC)C(=O)CSc1nnc(-c2c[nH]c3ccccc23)o1,"inconclusive: 21.3 µM [inhibitor, partial curve]"
3,Cc1ccccc1-c1cc(C(=O)NCC2CC2)n(CC2CC(c3cccnc3)=NO2)n1 (stereo not given),inactive
4,COc1ccc(Nc2nc(-c3cccs3)nc3ccccc23)c(OC)c1,"inconclusive: 16.9 µM [inhibitor, partial curve]"
5,Fc1ccc(Nc2nc(-c3ccncc3)cs2)cc1,"inconclusive: 6.01 µM [inhibitor, partial curve]"
6,CCn1c2ccccc2c2cc(NC(=O)COC(=O)c3cc(OC)c(OC)cc3OC)ccc21,inactive
7,Cc1c(C(=O)NC2CCCCC2)oc2ccc(F)cc12,active: 12 µM
8,COc1ccc(C(=O)Oc2ccc(/C=N/Nc3ccc(Cl)c(C(=O)O)c3)cc2OC)cc1,"inconclusive: 26.9 µM [inhibitor, single point]"
9,N/C(=N\OC(=O)c1ccccc1)c1ccn[nH]1,active: 6.75 µM
10,COc1ccc(-c2nc(C)c(CCNC(=O)c3cccs3)s2)cc1OC,active: 16.9 µM
11,COc1ccccc1/C=C1\C(=O)Nc2ccccc21,"inconclusive: 37.9 µM [inhibitor, partial curve, poor fit]"
12,Cc1cc(C)n(CCCNC(=O)c2ccc(C)c(S(=O)(=O)N3CCOCC3)c2)n1,inactive
13,CCOC(=O)C(=O)N/N=C(/c1ccccc1)c1ccc(OC)cc1,inactive
14,Cc1nc2nc(-c3ccco3)[nH]n2c(=O)c1Cc1ccccc1,"inconclusive: 33.8 µM [inhibitor, single point]"
15,COC(=O)c1c(NC(=O)c2nc3ccccc3s2)sc2c1CCN(C(C)=O)C2,"inconclusive: 23.9 µM [inhibitor, partial curve, poor fit]"
16,CSc1ccc(/C=N/NC(=O)c2ccccc2Cl)cc1,active: 15.1 µM
17,CCc1ccc(CNC(=O)c2cc3ccccn3n2)cc1,"inconclusive: 26.9 µM [inhibitor, partial curve, poor fit]"
18,CCCOc1ccc(C(=O)NCC2OCCc3ccccc32)cc1 (stereo not given),"inconclusive: 23.9 µM [inhibitor, partial curve]"
19,CCOC(=O)c1cc(-c2cccs2)nc2c1c(C)nn2-c1ccccn1,"inconclusive: 30.1 µM [inhibitor, partial curve, poor fit]"
20,O=C1OCC(CO)(CO)N=C1NNc1ccc(Cl)c(Cl)c1,"inconclusive: 26.9 µM [inhibitor, partial curve, poor fit]"
